In the test the test system is SW480. The test can be described thus: multicolor co-culture of SW480 and donor-derived CD8+ T cells. To be noted: then co-cultured with donor-derived CD8+ T cells. The method, then:
Isolation of donor-derived CD8+ T cells. An Easy Step Human CD8+ T Cell Isolation Kit was used to isolate CD8+ T cells from a donor PBMC sample via negative selection (Cat #, 17913, Stem Cell Technologies, Vancouver, Canada).
Multicolor immune cell co-culture experiments. […] Immune cell monocultures were treated with DMSO, 5 μM or 10 μM elraglusib and cell viability was monitored to ensure that the concentrations of drug used were not cytotoxic to immune cells. Colorectal cancer cells were labeled using CellTracker™ Green CMFDA (5-chloromethyl fluorescein diacetate), immune cells (NK-92, TALL-104) were labeled using CellTracker™ Blue CMAC Dye (7-amino-4-chloromethylcoumarin). Ethidium homodimer-1 (EthD-1) was used as a marker of cell death (Invitrogen, Waltham, MA, USA). 10× images were captured using a Nikon Ti-U Inverted Fluorescence Microscope and NIS-Elements F Package imaging software 3.22.00 Build 710 (Nikon Instruments Inc., New York, NY, USA). The number of red/green color cells in random fields was determined using thresholding and particle analysis in the Fiji modification (RRID: SCR_002285) of ImageJ and expressed as a dead/live cell ratio. […] At least one hundred cells were evaluated per sample, with three independent replicates. […]

Structures are written as SMILES.

The results in this text go back to US20240041830A1, “CIRCULATING BIOMARKERS OF RESPONSE TO PD-1/PD-L1 BLOCKADE AND GSK-3 INHIBITION” (Brown University, priority 2022, published 2024).

In the case of `Cn1cc(C2=C(c3coc4ccc(F)cc34)C(=O)NC2=O)c2cc3c(cc21)OCO3` [elraglusib], the “dead cells out of total cells” value by setting is: (tumor cells pre-treated 5 μM for twenty-four hours) 65%; (tumor cells pre-treated 10 μM for twenty-four hours) 70%.
